Data taken from the supplement of paper PMC4967469.

Tests used:
Test in all cases: Viability of human cancer cell lines after 72 h of drug (GDSC screen)
ZM-447439 = compound: COc1cc2c(Nc3ccc(NC(=O)c4ccccc4)cc3)ncnc2cc1OCCCN1CCOCC1 [ZM-447439]; details: top dose inferred
Procedure: (§1)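 Human cancer cell lines in 384-well plates, medium with 10% serum, drug for 72 h over a 256-fold dose range (nine 2-fold or five 4-fold steps up to the top dose). Adherent lines were fixed and stained with the nucleic acid dye Syto60, suspension lines read with resazurin; signal relative to control wells, capped at 0 and 100%. One two-parameter sigmoid per drug and line, fitted in a mixed model over all curves with the slope shared within a line.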

AZD6244 = compound: Cn1cnc2c(F)c(Nc3ccc(Br)cc3Cl)c(C(=O)NOCCO)cc21 [AZD6244]; details: screen: GDSC drug entry 1062
Procedure: as §1

PD-0332991 = compound: CC(=O)c1c(C)c2cnc(Nc3ccc(N4CCNCC4)cn3)nc2n(C2CCCC2)c1=O [PD-0332991]
Procedure: as §1

Cell Line | AUC (ZM-447439) | IC50 (ZM-447439) | AUC (AZD6244) | IC50 (AZD6244) | AUC (PD-0332991) | IC50 (PD-0332991)
NCI-H841 (small cell lung carcinoma, adherent, top dose 4 µM) | 0.868 | 3.68 µM | 0.988 | > 4 µM | 0.897 | > 4 µM
NCI-H847 (small cell lung carcinoma, adherent, top dose 4 µM) | 0.918 | > 4 µM | 0.992 | > 4 µM | 0.993 | > 4 µM
NCI-H929 (myeloma, suspension, top dose 4 µM) | 0.929 | > 4 µM | 0.981 | > 4 µM | 0.954 | > 4 µM
NCI-H1048 (small cell lung carcinoma, adherent, top dose 4 µM) | 0.817 | 1.95 µM | 0.985 | > 4 µM | 0.984 | > 4 µM
NCI-H1092 (small cell lung carcinoma, suspension, top dose 4 µM) | 0.99 | > 4 µM | 0.988 | > 4 µM | 0.99 | > 4 µM
NCI-H1105 (small cell lung carcinoma, suspension, top dose 4 µM) | 0.883 | 2.98 µM | 0.993 | > 4 µM | 0.993 | > 4 µM
NCI-H1155 (large cell lung carcinoma, suspension, top dose 4 µM) | 0.932 | > 4 µM | 0.954 | > 4 µM | 0.987 | > 4 µM
NCI-H1304 (small cell lung carcinoma, suspension, top dose 4 µM) | 0.97 | > 4 µM | 0.988 | > 4 µM | 0.986 | > 4 µM
NCI-H1341 (small cell lung carcinoma, suspension, top dose 4 µM) | 0.949 | > 4 µM | 0.99 | > 4 µM | 0.992 | > 4 µM
NCI-H1355 (lung adenocarcinoma, adherent, top dose 2 µM) | 0.905 | > 2 µM | 0.936 | > 2 µM | 0.773 | 1.16 µM
NCI-H1395 (lung adenocarcinoma, adherent, top dose 4 µM) | 0.961 | > 4 µM | 0.972 | > 4 µM | 0.971 | > 4 µM
NCI-H1417 (small cell lung carcinoma, suspension, top dose 4 µM) | 0.797 | 2.32 µM | 0.967 | > 4 µM | 0.305 | 0.0633 µM
NCI-H1435 (lung adenocarcinoma, semi-adherent, top dose 4 µM) | 0.992 | > 4 µM | 0.99 | > 4 µM | 0.993 | > 4 µM
NCI-H1436 (small cell lung carcinoma, suspension, top dose 4 µM) | 0.898 | > 4 µM | 0.983 | > 4 µM | 0.986 | > 4 µM
NCI-H1563 (lung adenocarcinoma, adherent, top dose 4 µM) | 0.981 | > 4 µM | 0.957 | > 4 µM | 0.884 | > 4 µM
NCI-H1623 (lung adenocarcinoma, adherent, top dose 4 µM) | 0.934 | > 4 µM | 0.858 | > 4 µM | 0.917 | > 4 µM
NCI-H1651 (lung adenocarcinoma, adherent, top dose 4 µM) | 0.845 | 3.22 µM | 0.87 | > 4 µM | 0.946 | > 4 µM
NCI-H1688 (small cell lung carcinoma, adherent, top dose 4 µM) | 0.973 | > 4 µM | 0.974 | > 4 µM | 0.978 | > 4 µM
NCI-H1693 (lung adenocarcinoma, adherent, top dose 2 µM) | 0.926 | > 2 µM | 0.897 | > 2 µM | 0.852 | > 2 µM
NCI-H1694 (small cell lung carcinoma, suspension, top dose 4 µM) | 0.945 | > 4 µM | 0.984 | > 4 µM | 0.989 | > 4 µM

Cell Line | AUC (ZM-447439) | IC50 (ZM-447439) | AUC (AZD6244) | IC50 (AZD6244) | AUC (PD-0332991) | IC50 (PD-0332991)
NCI-H1703 (lung adenocarcinoma, adherent, top dose 4 µM) | 0.947 | > 4 µM | 0.961 | > 4 µM | 0.716 | 1.19 µM
NCI-H1755 (lung adenocarcinoma, adherent, top dose 4 µM) | 0.902 | > 4 µM | 0.942 | > 4 µM | 0.855 | > 4 µM
NCI-H1770 (non-small cell lung carcinoma, suspension, top dose 4 µM) | 0.935 | > 4 µM | 0.991 | > 4 µM | 0.992 | > 4 µM
NCI-H1781 (lung adenocarcinoma, adherent, top dose 4 µM) | 0.871 | 3.78 µM | 0.989 | > 4 µM | 0.989 | > 4 µM
NCI-H1792 (lung adenocarcinoma, adherent, top dose 4 µM) | 0.978 | > 4 µM | 0.951 | > 4 µM | 0.837 | 2.31 µM
NCI-H1836 (small cell lung carcinoma, suspension, top dose 4 µM) | 0.988 | > 4 µM | 0.988 | > 4 µM | 0.988 | > 4 µM
NCI-H1869 (lung squamous cell carcinoma, adherent, top dose 4 µM) | 0.957 | > 4 µM | 0.868 | > 4 µM | 0.93 | > 4 µM
NCI-H1876 (small cell lung carcinoma, adherent, top dose 4 µM) | 0.872 | 3.9 µM | 0.987 | > 4 µM | 0.987 | > 4 µM
NCI-H1944 (lung adenocarcinoma, adherent, top dose 4 µM) | 0.96 | > 4 µM | 0.985 | > 4 µM | 0.899 | > 4 µM
NCI-H1975 (lung adenocarcinoma, adherent, top dose 4 µM) | 0.931 | > 4 µM | 0.983 | > 4 µM | 0.864 | > 4 µM
NCI-H1993 (lung adenocarcinoma, adherent, top dose 4 µM) | 0.958 | > 4 µM | 0.983 | > 4 µM | 0.975 | > 4 µM
NCI-H2009 (lung adenocarcinoma, adherent, top dose 4 µM) | 0.874 | > 4 µM | 0.96 | > 4 µM | 0.968 | > 4 µM
NCI-H2023 (lung adenocarcinoma, adherent, top dose 2 µM) | 0.959 | > 2 µM | 0.956 | > 2 µM | 0.81 | 1.39 µM
NCI-H2052 (mesothelioma, adherent, top dose 4 µM) | 0.978 | > 4 µM | 0.981 | > 4 µM | 0.969 | > 4 µM
NCI-H2081 (small cell lung carcinoma, suspension, top dose 4 µM) | 0.898 | > 4 µM | 0.986 | > 4 µM | 0.989 | > 4 µM
NCI-H2085 (lung adenocarcinoma, adherent, top dose 2 µM) | 0.917 | > 2 µM | 0.887 | > 2 µM | 0.876 | > 2 µM
NCI-H2087 (lung adenocarcinoma, semi-adherent, top dose 4 µM) | 0.892 | > 4 µM | 0.688 | 0.881 µM | 0.772 | 1.66 µM
NCI-H2135 (non-small cell lung carcinoma, adherent, top dose 4 µM) | 0.991 | > 4 µM | 0.984 | > 4 µM | 0.991 | > 4 µM
NCI-H2141 (small cell lung carcinoma, suspension, top dose 4 µM) | 0.985 | > 4 µM | 0.991 | > 4 µM | 0.991 | > 4 µM
NCI-H2227 (small cell lung carcinoma, semi-adherent, top dose 4 µM) | 0.801 | 2.26 µM | 0.975 | > 4 µM | 0.986 | > 4 µM

Cell Line | AUC (ZM-447439) | IC50 (ZM-447439) | AUC (AZD6244) | IC50 (AZD6244) | AUC (PD-0332991) | IC50 (PD-0332991)
NCI-H2291 (lung adenocarcinoma, adherent, top dose 4 µM) | 0.952 | > 4 µM | 0.637 | 0.691 µM | 0.907 | > 4 µM
NCI-H2342 (lung adenocarcinoma, adherent, top dose 4 µM) | 0.97 | > 4 µM | 0.981 | > 4 µM | 0.909 | > 4 µM
NCI-H2347 (lung adenocarcinoma, adherent, top dose 4 µM) | 0.971 | > 4 µM | 0.767 | 1.8 µM | 0.894 | > 4 µM
NCI-H2405 (lung adenocarcinoma, adherent, top dose 4 µM) | 0.985 | > 4 µM | 0.979 | > 4 µM | 0.908 | > 4 µM
NCI-H2444 (non-small cell lung carcinoma, adherent, top dose 4 µM) | 0.944 | > 4 µM | 0.981 | > 4 µM | 0.912 | > 4 µM
NCI-H2452 (mesothelioma, adherent, top dose 4 µM) | 0.952 | > 4 µM | 0.983 | > 4 µM | 0.906 | > 4 µM
NCI-N87 (stomach, adherent, top dose 4 µM) | 0.96 | > 4 µM | 0.974 | > 4 µM | 0.944 | > 4 µM
NCI-SNU-1 (stomach, suspension, top dose 4 µM) | 0.985 | > 4 µM | 0.981 | > 4 µM | 0.978 | > 4 µM
NCI-SNU-5 (stomach, suspension, top dose 4 µM) | 0.966 | > 4 µM | 0.969 | > 4 µM | 0.92 | > 4 µM
NCI-SNU-16 (stomach, suspension, top dose 4 µM) | 0.941 | > 4 µM | 0.985 | > 4 µM | 0.988 | > 4 µM
NEC8 (testis, adherent, top dose 4 µM) | 0.952 | > 4 µM | 0.986 | > 4 µM | 0.917 | > 4 µM
NH-12 (neuroblastoma, adherent, top dose 4 µM) | 0.867 | > 4 µM | 0.898 | > 4 µM | 0.83 | 2.94 µM
NKM-1 (acute myeloid leukaemia, suspension, top dose 4 µM) | 0.915 | > 4 µM | 0.949 | > 4 µM | 0.814 | 2.25 µM
NMC-G1 (glioma, adherent, top dose 4 µM) | 0.93 | > 4 µM | 0.928 | > 4 µM | 0.9 | > 4 µM
NOMO-1 (acute myeloid leukaemia, suspension, top dose 4 µM) | 0.775 | 1.81 µM | 0.831 | 3.02 µM | 0.706 | 1.04 µM
NOS-1 (osteosarcoma, adherent, top dose 4 µM) | 0.933 | > 4 µM | 0.911 | > 4 µM | 0.922 | > 4 µM
NU-DUL-1 (B-cell lymphoma, suspension, top dose 4 µM) | 0.839 | 1.99 µM | 0.953 | > 4 µM | 0.807 | 1.58 µM
NUGC-3 (stomach, adherent, top dose 2 µM) | 0.83 | 1.48 µM | 0.751 | 0.733 µM | 0.811 | 1.23 µM

Lines with a small IC50 respond at low doses; a fit beyond the top or the lowest dose is shown as a bound at that dose. For AUC the same curve is integrated over the 256-fold range of doses and scaled to a fraction; values near 1 show little effect. For part of these data: An inferred top dose is not printed in the source and was worked back from the curve model. For part of these data: An entry number marks a drug with two screens in the source, which often give different values.
